Results published in PubChem BioAssay AID1508623 (National Center for Advancing Translational Sciences (NCATS), 2021).
Out of some 48,000 compounds screened, about 450 (0.94%) were called active. Another 19% or so got no clear call; they are omitted. Calls follow the shape of the dose curve; as a rule, active = well fitted inhibition curve with a large enough effect; inconclusive = small, poorly fitted or top-dose-only effect; inactive = no such curve, though single readings can be large or run the other way. The list shows a part of the results.

Experiment: Primary qHTS for Identification of Small Molecule Inhibitors of Huntingtin Promoter Activity; also: nearly all actives have a fitted effect of over 50% in size
Conditions: HEK293 HTT promoter firefly luciferase reporter (activity 0% = vehicle and -100% = no light), 24 h; series mostly up to 57.5 µM; activity change, negative = inhibition: at the top concentration
How it was run: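 Firefly luciferase signal from promoter-reporter HEK293 cells was scaled between vehicle (0%) and zero RLU (-100%). Compounds were tested at final concentrations of up to 57.5 uM over 24 h at 37 degrees C. PTC124 at 50 uM final served as control inhibitor.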

Activity change, negative = inhibition, inactive:
Cc1nn(C(=O)c2ccc(Br)cc2)c(C)c1S(=O)(=O)N1CCOCC1 -13%
Cc1coc2c(C)c3oc(=O)c(CCC(=O)NCCc4ccccc4)c(C)c3cc12 -4.72%
Cn1c(NCCO)nc2c1c(=O)n(Cc1cccc(F)c1)c(=O)n2C 7.63%
COc1cccc(/C=C/c2nc(C#N)c(NCCc3ccc(OC)c(OC)c3)o2)c1 -26.8%
COC(=O)c1ccc2c(c1)N(Cc1ccc(F)cc1)C(=O)c1ccccc1S2 -23.4%
CCCCN1C(=O)C(O)(c2c[nH]c3ccccc23)c2cc(Br)ccc21 (stereo not given) -16.9%
CCOc1ccc(CCNC(=O)c2cnc3c(-c4ccc(F)cc4)c(C)nn3c2C)cc1OCC -6.79%
Cc1ccc(NC(=O)Cn2c(=O)n(Cc3ccco3)c(=O)c3sc4ccccc4c32)cc1C -5.3%
COc1ccc2c(c1)sc1ncc(C(=O)NCc3ccc(OC(C)C)cc3)c(=O)n12 -1.12%
Oc1c(C(c2ccc(Cl)cc2)N2CCC3(CC2)OCCO3)sc2nc(-c3ccco3)nn12 (stereo not given) 9.86%
O=C(Cn1c(=O)oc2ccccc21)Nc1ccc(C(=O)O)cc1 -18.6%
COc1cc(NC(=O)c2cccc3c2C(=O)N(C2CCCCC2)C3)cc(OC)c1 10.4%
CCOc1ccccc1NC(=O)CSc1nc2cc(OC)c(OC)cc2c2nc(-c3ccccc3)nn12 21.3%
Cc1ccc(C)c(CN2C(=O)c3ccccc3S(=O)(=O)c3ccc(C(=O)N4CCN(c5ccccc5)CC4)cc32)c1 -18.8%
C#CCSc1nc2sc3c(c2c(=O)n1Cc1ccccc1)CCCC3 -22.8%
COc1ccccc1OCCSc1nc2ccccc2n1CC(=O)N1CCOCC1 3.95%
COc1ccc(NC(=O)c2sc3nc(-c4ccc(OC)cc4)cc(C(F)(F)F)c3c2N)cc1 -13.6%
Cc1ccccc1Nc1c(-c2ccco2)nc2c(C)cccn12 -12.5%
CC1CCCCN1S(=O)(=O)c1ccc(C(=O)Nc2sc3c(c2C(N)=O)CC(C)(C)NC3(C)C)cc1 (stereo not given) -11.5%
Cc1ccc(NC(=O)CCS(=O)(=O)c2cccc3nonc23)cc1Cl -18.9%
Cc1cccc(NC(=O)Cn2c(=O)n(CCCS(=O)(=O)C3CCCCC3)c(=O)c3ccccc32)c1 -16.1%
CCOC(=O)c1ccc(-n2c(C)nc3c(cnn3-c3ccc(Cl)cc3)c2=O)cc1 -14.7%
CCOCCCNC(=O)c1[nH]c2cc(C)ccc2c1Sc1ccc(Cl)cc1 9.01%
COc1ccc(CCNC(=O)c2c(O)nc3c(C)cccn3c2=O)cc1 1.82%
CCOCCc1nn2c(=O)cc(COC(=O)c3ccccc3NC(=O)C3CCCCC3)nc2s1 -14%
COc1cc(OC)c(N(C)C(=O)CCNC(=O)Cn2cnc3ccccc3c2=O)cc1Cl -7.38%
CN(C)CCNC(=O)Cn1c(=O)c2cccn2c2ccc(F)cc21 -2.28%
COc1ccc(CNC(=O)c2ccc(NC(=O)N3CCSc4ncccc43)cc2)cc1OC -2.41%
CCOC(=O)c1c(NC(=O)CCCOc2ccc(Cl)cc2)sc2c1CCC2 -7.49%
COc1ccc(OC)c(-c2noc(N3CCN(c4ccc(C(C)=O)cc4)CC3)n2)c1 -28.4%
COc1ccc(-c2oc3ncn4nc(COc5ccc(C)cc5)nc4c3c2-c2ccc(OC)cc2)cc1 -9.31%
COc1ccc(Cc2ccc(NC(N)=O)cc2)cc1-c1cccc(Cl)c1 -2.12%
CCOC(=O)Cn1c(=O)oc2cc(S(=O)(=O)N3CCN(c4ccccc4OC)CC3)ccc21 -16.2%
O=C(NCCc1csc2nc(-c3ccccc3F)nn12)c1ccccc1C(F)(F)F -6.82%
COc1cccc(CN(C(=O)c2ccc(C(C)(C)C)cc2)C2CCS(=O)(=O)C2)c1 (stereo not given) -9.28%
CCCOc1ccc(C(=O)Nc2ccc3nn(-c4ccc(OC)c(Cl)c4)nc3c2)cc1 12.4%
CCOc1ccc(-c2nnc(SCC(=O)Nc3cc(F)ccc3F)o2)cc1 -9.69%
COc1cccc2c1Oc1nc(-c3ccccc3)nc(SCC(=O)Nc3ccccc3)c1C2 -10.3%
COc1ccc(N(CC(=O)NCCc2ccccc2)S(=O)(=O)c2ccc(OC)c(OC)c2)cc1 -17% [at 11.5 µM]
Cc1ccc(NC(=O)/C(C#N)=C/c2cc(C)n(-c3ccc(Br)cc3)c2C)cc1C -18.5%
Cc1ccc(CCNC(=O)c2ccc(CS(=O)(=O)c3ccc(Cl)cc3)o2)cc1 0%
COCCNC(=O)CCCN1C(=O)CCn2nc(-c3cccn3C)cc21 8.74%
Cc1cc2ccccc2n1CCNC(=O)c1ccc(F)cc1 -20.1%
CCN1C(=O)C2(c3ccccc31)c1c(oc3ccc(C)cc3c1=O)C(=O)N2CCCOC(C)C (stereo not given) -11%
Cc1cc(O)c(C(c2ccc(Cl)cc2)N2CCN(c3ccccc3)CC2)c(=O)n1Cc1ccco1 (stereo not given) -7.06%
O=C(c1ccccc1F)N1CCC(c2nc3c(nnn3Cc3cccc(F)c3)c(=O)[nH]2)CC1 0.456%
Cc1oc(-c2ccc(C(=O)NC(C)c3ccccc3)cc2)nc1CS(=O)(=O)c1ccccc1 (stereo not given) -10.2% [at 11.5 µM]
COC(=O)c1ccccc1NC(=O)CCCN1C(=O)C(c2ccccc2)Oc2cccnc21 (stereo not given) -15.5%
Cc1ccc(Nc2ncnc3c2cnn3-c2ccc(C)cc2)cc1 15.3%
COc1ccc(OCC(=O)N(Cc2cccc(OC)c2)C2CCS(=O)(=O)C2)cc1 (stereo not given) -2.35%
COc1ccc(C)cc1NS(=O)(=O)c1c(C)nc2sc(C)cn2c1=O -24.5%
CCOc1ccccc1NC(=O)CSc1ccc2nnc(CCNS(=O)(=O)c3ccccc3)n2n1 -1.23%
COCCNC(=O)CCCn1c(=O)[nH]c2ccsc2c1=O 3.92%
Brc1ccc(-c2noc(-c3ccccc3)n2)o1 34.7%
Cc1ccc(Cl)cc1N(C)C(=O)c1noc2c1CCCCC2 -19.7%
COc1ccccc1NC(=O)C1=C(C)Nc2nc(SCC(=O)c3ccc(C)cc3)nn2C1c1ccccc1C (stereo not given) 5.11%
COc1ccc(NC(=O)c2sc3nc(C)c(C(=O)Nc4ccc(C)cc4C)c(-c4ccccc4Cl)c3c2N)cc1 -23.9%
CSCCC(NS(=O)(=O)c1ccc2c(c1)oc(=O)n2C)C(=O)NCc1ccc(F)cc1 (stereo not given) -11.8%
COc1ccc(-n2cc(C(=O)N(C)c3cc(C)ccc3OC)c3ccccc3c2=O)cc1 -18.3%
CCOc1ccc(NS(=O)(=O)c2ccc3[nH]cc(C(=O)NCCOC)c(=O)c3c2)cc1 18.7%
